{"source": "PubChem BioAssay AID686979", "about": "(National Center for Advancing Translational Sciences (NCATS), 2013)", "note": "Screen size: about 420,000 compounds; about 50,000 (12%) were called active. This list was built around the results that the source calls inconclusive (neither active nor inactive); the mix of calls is not that of the screen. Calls follow the shape of the dose curve; as a rule, active = well fitted inhibition curve with a large enough effect; inconclusive = small, poorly fitted or top-dose-only effect; inactive = flat fitted curve, though single readings scatter. No potency is given beside an inconclusive call; the fits are too rough. Potency is read from the fitted curve at half-maximal effect; tags tell the direction and shape of the fitted curve."}
{"experiment": "qHTS for Inhibitors of human tyrosyl-DNA phosphodiesterase 1 (TDP1): qHTS in cells in presence of CPT; also: nearly all actives have a fitted effect of over 55% in size", "settings": "chicken DT40 Tdp1-/-;hTDP1 cells + 20 nM CPT, ATP luminescence, 48 h; series mostly up to 46.2 µM", "outline": "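Chicken DT40 Tdp1-/- cells stably complemented with human TDP1 were seeded at 400 cells/well in medium containing 20 nM camptothecin, exposed to pin-transferred compounds, and grown at 37 °C for at least 48 hr. Viability was read as ATP luminescence.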"}
{"compound": "Cc1cc(C)c2c(CC(=O)NCc3ccco3)coc2c1", "Potency": "inconclusive [inhibitor, single point]"}
{"compound": "COc1cc2c(cc1OC)-c1cc(N3CCc4ccccc43)nc(=O)n1CC2", "Potency": "inconclusive [inhibitor, partial curve]"}
{"compound": "COCOc1ccc(/C=C/C(=O)c2c(OCOC)cc(OCOC)c(CC=C(C)C)c2O)cc1OCOC", "Potency": "inconclusive [inhibitor, single point]"}
{"compound": "COc1ccc(N2C(=NC(C)=O)SC3CS(=O)(=O)CC32)cc1OC", "note": "(centres undefined)", "Potency": "inactive"}
{"compound": "O=C(COc1ccccc1)NC(NC(=S)Nc1ccccc1O)C(Cl)(Cl)Cl", "note": "(centres undefined)", "Potency": "inconclusive [inhibitor, single point]"}
{"compound": "O=C(c1cc(S(=O)(=O)N2CCCC2)c[nH]1)N1CCN(c2cccc(Cl)c2)CC1", "Potency": "inconclusive [inhibitor, partial curve, poor fit]"}
{"compound": "COc1ccccc1-c1cc(NC(C)=O)c2ncc(-c3ccc(F)cc3)n2c1", "Potency": "inconclusive [inhibitor, single point]"}
{"compound": "Cc1cc(N2CCOCC2)n2ncc(-c3ccccc3Cl)c2n1", "Potency": "inactive"}
{"compound": "CCC(CC)C(=O)N1CCc2cc(OC)c(OC)cc2C1COc1ccc2c(C)cc(=O)oc2c1", "note": "(centres undefined)", "Potency": "inconclusive [inhibitor, single point]"}
{"compound": "C=CCn1c(=O)[nH]c2cc(C(=O)N3CCN(c4cc(C)ccc4C)CC3)ccc2c1=O", "Potency": "inconclusive [inhibitor, partial curve]"}
{"compound": "COc1ccccc1-c1cnc(C(O)c2ccc(C(C)(C)C)cc2)[nH]1", "note": "(centres undefined)", "Potency": "inconclusive [inhibitor, partial curve, poor fit]"}
{"compound": "Cc1ccc(N(CC(=O)NC2CCCC2)C(=O)c2ccc(C)s2)cc1", "Potency": "inconclusive [inhibitor, single point]"}
{"compound": "CCN1CCN(c2nc(Nc3ccccc3)nc(N)c2[N+](=O)[O-])CC1", "Potency": "inactive"}
{"compound": "COc1cccc(NC(=O)CN(c2ccccc2OC)S(=O)(=O)c2cccs2)c1", "Potency": "inconclusive [inhibitor, single point]"}
{"compound": "CCn1c(C(=O)N2CCc3ccccc3C2)cc2oc3ccccc3c21", "Potency": "inconclusive [inhibitor, single point]"}
{"compound": "Cc1cc(NC(=O)CSc2nc3ccccc3n2CC(=O)N2CCC(C)CC2)no1", "Potency": "inconclusive [inhibitor, partial curve]"}
{"compound": "CN1c2ccccc2C(C)(C)[C@]12C=Cc1cc(O)ccc1O2", "Potency": "active: 2.59 µM"}
{"compound": "Cc1ccc(C)c(N(CC(=O)Nc2ccccc2C(=O)NCc2ccco2)S(=O)(=O)c2ccccc2)c1", "Potency": "inconclusive [inhibitor, single point]"}
{"compound": "COc1ccc(N2CCN(C3CCCN(Cc4ccccc4OCCO)C3)CC2)cc1", "note": "(centres undefined)", "Potency": "inconclusive [inhibitor, single point]"}
{"compound": "O=C(NCC1CCCO1)C(c1cccs1)N(C(=O)c1ccc(CN2CCOCC2)o1)c1ccc(Cl)cc1", "note": "(centres undefined)", "Potency": "inactive"}
{"compound": "O=C1c2ccccc2C(Nc2ccccc2F)N1c1cccnc1", "note": "(centres undefined)", "Potency": "inactive"}
{"compound": "COc1ccc(OC)c(C(=O)NC(CC(N)=O)c2ccc(N3CCN(c4ccccn4)CC3)c([N+](=O)[O-])c2)c1", "note": "(centres undefined)", "Potency": "inactive"}
{"compound": "CCOc1ccc(CN(CC)C(=O)c2ccc3c(c2)[nH]c(=O)c(=O)n3CC)cc1OC", "Potency": "inactive"}
{"compound": "CCc1ccc(S(=O)(=O)NCc2csc(C)n2)cc1", "Potency": "inactive"}
{"compound": "Cc1ccc(S(=O)(=O)N(C)Cc2ccc(C(=O)N/N=C/c3ccc(OC(F)F)cc3OC(F)F)cc2)cc1", "Potency": "inconclusive [inhibitor, single point]"}
{"compound": "CC(C)(C)NC(=S)Nc1ccc(Nc2ccccc2)cc1", "Potency": "active: 14.6 µM"}
{"compound": "C=CCSC1=NC(=O)/C(=C/c2cccs2)S1", "Potency": "inconclusive [inhibitor, single point]"}
{"compound": "CC(=O)c1nn(-c2cccc(Br)c2)cc1C(=O)c1ccc(Br)cc1", "Potency": "active: 13 µM"}
{"compound": "CCc1c(C)nc(Nc2nc(C)c3cc(OC)ccc3n2)[nH]c1=O", "Potency": "inconclusive [inhibitor, single point]"}
{"compound": "COc1cc(CN2CCC(CO)(Cc3cccc(C(F)(F)F)c3)CC2)ccc1F", "Potency": "active: 20.6 µM"}
{"compound": "CCOC(=O)c1c(C)[nH]c(CCC(=O)NCc2cc(Br)ccc2OC)c1C", "Potency": "inconclusive [inhibitor, single point]"}
{"compound": "Oc1ccccc1-c1nc2c3ccccc3c3ccccc3c2[nH]1", "Potency": "active: 20.6 µM"}
{"compound": "CC(C)c1ccc(N(CC(=O)NCc2ccc(F)cc2)C(=O)c2snc(C(N)=O)c2N)cc1", "Potency": "inconclusive [inhibitor, single point]"}
{"compound": "O=C(NCC1(N2CCOCC2)CCCC1)c1cnn(-c2nccc(-c3ccco3)n2)c1C1CC1", "Potency": "inconclusive [inhibitor, single point]"}
{"compound": "CCOC(=O)Cc1cc(=O)n2[nH]c(C)c(-c3ccc(Cl)cc3)c2n1", "Potency": "active: 16.4 µM"}
{"compound": "O=C(Nc1cc(Cl)ccc1O)c1cc(-c2ccc3c(c2)OCO3)on1", "Potency": "inactive"}
{"compound": "CCCNC(=O)c1ccccc1NC(=O)CN(c1ccccc1)S(=O)(=O)N(C)C", "Potency": "inactive"}
{"compound": "Cc1onc(-c2c(Cl)cccc2Cl)c1C(=O)N1CCN(c2ncccn2)CC1", "Potency": "inconclusive [inhibitor, single point]"}
{"compound": "COc1ccc(NC(=O)N2CCC3(CC2)CCN(C(=O)c2cccn2C)CC3)cc1", "Potency": "inactive"}
{"compound": "O=C(c1ccc(F)cc1Cl)N(c1ccccn1)C1CCCCC1", "Potency": "active: 18.4 µM"}
{"compound": "O=S(=O)(c1cccc(-c2nc3n(n2)Cc2ccccc2-3)c1)N1CCCC1", "Potency": "active: 20.6 µM"}
{"compound": "O=C(NCCOc1ccccc1)c1cc(S(=O)(=O)N2CCOCC2)ccc1F", "Potency": "inconclusive [inhibitor, single point]"}
{"compound": "CC(=O)Nc1ccc(SC[C@H](CC(C)C)N2CCN(CC(C)C)CCC2=O)cc1", "Potency": "inconclusive [inhibitor, single point]"}
{"compound": "CC(C)C(=O)N1CCN(c2ccccc2NC(=O)Cc2ccc(Cl)cc2)CC1", "Potency": "inconclusive [inhibitor, single point]"}
